Changes are numbered by the printed parent chain. No constants are given. Whether binding was seen depends on the method and setting. Some entries that bind do so weakly or less than the wild type. Tags and fused reporters may be left off the sequences shown. Values belong to the binder of their own block, whether it stands above or below them.
Assays:
[1] = target: T1, Kar4p E260K fused to the Gal4p DNA-binding domain (S. cerevisiae) (UniProt P25583); test: two-hybrid; KAR4-GBD alleles with IME4-GAD in PJ69-4 diploids; 24 hours in meiosis-inducing conditions, then 10-fold serial dilutions on SC-HIS and SC-ADE (HIS3 and ADE2 reporters); graded ++++ to -
T1 sequence: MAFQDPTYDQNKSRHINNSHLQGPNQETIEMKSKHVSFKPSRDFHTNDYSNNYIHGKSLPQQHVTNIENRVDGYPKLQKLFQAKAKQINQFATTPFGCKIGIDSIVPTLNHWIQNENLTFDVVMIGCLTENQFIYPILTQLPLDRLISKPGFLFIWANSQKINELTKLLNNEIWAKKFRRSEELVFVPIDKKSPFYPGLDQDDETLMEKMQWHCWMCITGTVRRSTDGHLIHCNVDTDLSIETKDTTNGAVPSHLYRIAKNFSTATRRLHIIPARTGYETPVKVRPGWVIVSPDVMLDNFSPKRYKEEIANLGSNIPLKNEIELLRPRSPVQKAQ

[2] = target: T2, Kar4p ΔP281V282 fused to the Gal4p DNA-binding domain (S. cerevisiae) (UniProt P25583); test: as above
T2 sequence: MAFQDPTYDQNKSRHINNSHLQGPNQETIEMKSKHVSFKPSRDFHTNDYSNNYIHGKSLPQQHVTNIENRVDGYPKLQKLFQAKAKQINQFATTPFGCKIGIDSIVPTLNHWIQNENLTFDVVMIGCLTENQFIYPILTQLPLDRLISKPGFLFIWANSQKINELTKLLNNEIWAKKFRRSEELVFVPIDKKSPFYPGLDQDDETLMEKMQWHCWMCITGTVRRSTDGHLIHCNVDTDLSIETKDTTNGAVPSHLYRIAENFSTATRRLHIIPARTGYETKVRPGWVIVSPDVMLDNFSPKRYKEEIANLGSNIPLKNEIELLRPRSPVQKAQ

[3] = target: T3, Kar4p F186S fused to the Gal4p DNA-binding domain (S. cerevisiae) (UniProt P25583); test: as above
T3 sequence: T1 sequence with F186S, K260E

[4] = target: T4, Kar4p A157P fused to the Gal4p DNA-binding domain (S. cerevisiae) (UniProt P25583); test: two-hybrid; one-hybrid assay: Kar4p-Gal4 DNA-binding domain recruits endogenous Ste12p to drive the HIS3 reporter in PJ69-4A; 10-fold serial dilutions on SC-HIS with 3 uM alpha-factor, 30 degrees; graded ++++ to -
T4 sequence: T1 sequence with A157P, K260E

[5] = target: T5, Kar4p G287D fused to the Gal4p DNA-binding domain (S. cerevisiae) (UniProt P25583); test: as above
T5 sequence: T1 sequence with K260E, G287D

[6] = target: T6, Kar4p A85P fused to the Gal4p DNA-binding domain (S. cerevisiae) (UniProt P25583); test: as above
T6 sequence: T1 sequence with A85P, K260E

- binding [1]: binds
- binding [2]: no binding
- binding [3]: binds
B1: Ime4p fused to the Gal4p activating domain (protein, UniProt P41833 1-600)
chain: MINDKLVHFLIQNYDDILRAPLSGQLKDVYSLYISGGYDDEMQKLRNDKDEVLQFEQFWNDLQDIIFATPQSIQFDQNLLVADRPEKIVYLDVFSLKILYNKFHAFYYTLKSSSSSCEEKVSSLTTKPEADSEKDQLLGRLLGVLNWDVNVSNQGLPREQLSNRLQNLLREKPSSFQLAKERAKYTTEVIEYIPICSDYSHASLLSTSVYIVNNKIVSLQWSKISACQENHPGLIECIQSKIHFIPNIKPQTDISLGDCSYLDTCHKLNTCRYIHYLQYIPSCLQERADRETASENKRIRSNVSIPFYTLGNCSAHCIKKALPAQWIRCDVRKFDFRVLGKFSVVIADPAWNIHMNLPYGTCNDIELLGLPLHELQDEGIIFLWVTGRAIELGKESLNNWGYNVINEVSWIKTNQLGRTIVTGRTGHWLNHSKEHLLVGLKGNPKWINKHIDVDLIVSMTRETSRKPDELYGIAERLAGTHARKLEIFGRDHNTRPGWFTIGNQLTGNCIYEMDVERKYQEFMKSKTGTSHTGTKKIDKKQPSKLQQQHQQQYWNNMDMGSGKYYAEAKQNPMNQKHTPFESKQQQKQQFQTLNNLYFAQ

- binding [4]: no binding
- binding [5]: binds
- binding [6]: binds
B2: Ste12p (protein, UniProt P13574 1-688)
chain: MKVQITNSRTEEILKVQANNENDEVSKATPGEVEESLRLIGDLKFFLATAPVNWQENQIIRRYYLNSGQGFVSCVFWNNLYYITGTDIVKCCLYRMQKFGREVVQKKKFEEGIFSDLRNLKCGIDATLEQPKSEFLSFLFRNMCLKTQKKQKVFFWFSVAHDKLFADALERDLKRESLNQPSTTKPVNEPALSFSYDSSSDKPLYDQLLQHLDSRRPSSTTKSDNSPPKLESENFKDNELVTVTNQPLLGVGLMDDDAPESPSQINDFIPQKLIIEPNTLELNGLTEETPHDLPKNTAKGRDEEDFPLDYFPVSVEYPTEENAFDPFPPQAFTPAAPSMPISYDNVNERDSMPVNSLLNRYPYQLSVAPTFPVPPSSSRQHFMTNRDFYSSNNNKEKLVSPSDPTSYMKYDEPVMDFDESRPNENCTNAKSHNSGQQTKQHQLYSNNFQQSYPNGMVPGYYPKMPYNPMGGDPLLDQAFYGADDFFFPPEGCDNNMLYPQTATSWNVLPPQAMQPAPTYVGRPYTPNYRSTPGSAMFPYMQSSNSMQWNTAVSPYSSRAPSTTAKNYPPSTFYSQNINQYPRRRTVGMKSSQGNVPTGNKQSVGKSAKISKPLHIKTSAYQKQYKINLETKARPSAGDEDSAHPDKNKEISMPTPDSNTLVVQSEEGGAHSLEVDTNRRSDKNLPDAT

Reference: PMC10470960
